Measured values reported in PubChem BioAssay AID1963576 (National Center for Advancing Translational Sciences (NCATS), 2024).
Out of some 46,000 compounds screened, about 60 (0.1%) were called active. Another 3% or so got no clear call; they are omitted. Calls come from the whole dose curve; as a rule, active = well fitted inhibition curve with a large enough effect; inconclusive = small, poorly fitted or top-dose-only effect; inactive = no such curve, though single readings can be large or run the other way. This is one part of the list.

Experiment: Primary qHTS assay for Inhibitors of ovarian cancer metastasis using an organotypic tumor microenvironment (TME) model.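 For activity change, negative = inhibition: plate controls were DMSO wells for no effect and tomatine positive control wells for full effect.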 Note: nearly all actives have a fitted effect of over 65% in size.
Conditions: SKOV3ip1-GFP adhesion/invasion on 3D omental model, fluorescence; series mostly up to 45.8 µM; activity change, negative = inhibition: at the top concentration
In short: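 A 3D layer of primary human omental fibroblasts, mesothelial cells, fibronectin and collagen I, grown 48 hr, received SKOV3ip1-GFP cells in serum-free medium plus compounds at 0.36-46 umol/L. After 2 hr RT and 16 hr 37 C, fixed adherent GFP cells were counted; normalized to DMSO and tomatine.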

outcome, inactive:
CCc1ccc(N(CC)C(=O)c2cn(C)c(=O)c3cc(OC)c(OC)cc23)cc1
CCc1ccc(C(=O)c2cn(CC(=O)Nc3ccc4c(c3)OCO4)c3ccc(Cl)cc3c2=O)cc1
CC(C)(C)C1CCc2c(sc3nc(-c4cc5cc(Cl)ccc5oc4=O)[nH]c(=O)c23)C1 (stereo unspecified)
CCN(CC)c1ccc(NC(=O)C2CCN(S(=O)(=O)c3c(C)noc3/C=C/c3ccccc3F)CC2)c(C)c1
Cc1ccc(CC(=O)NCc2nc(-c3ccccc3)no2)cc1
O=C(NCCc1ccccc1Cl)c1cc2ccccn2n1
CCOC(=O)c1ccc(NC(=O)c2nc(SCc3ccc(F)cc3)ncc2Cl)cc1
Cc1cc(SCC(=O)Nc2ccc(F)cc2F)nc(=O)[nH]1
CCCCn1c(=O)c2oc3ccccc3c2n(Cc2ccc(C)cc2)c1=O
COc1ccc(CNc2ncnc3c2c(-c2ccccc2)cn3-c2ccc(C)c(Cl)c2)cc1
COc1cc(C(=O)Nc2cc(C)c(O)c(-c3nc4ccccc4s3)c2)cc(OC)c1OC
COc1ccc(C(=O)Nc2ccc(-c3nc4ccccc4s3)c(Cl)c2)cc1Cl
Cn1c(NCCCO)nc2c1c(=O)n(Cc1cccc(F)c1)c(=O)n2C

Activity change, negative = inhibition, inactive:
COc1ccccc1C(=O)NC(=O)Nc1ccc(-c2cc(C(F)(F)F)nn2-c2ccccc2)cc1 -2.55%
CCOc1ccc(CCNC(=O)c2c3c(nc4ccccc24)C(=O)N(C2CCCCC2)C3)cc1 5.64%
Cc1ccc(S(=O)(=O)N2CCCc3cc(NC(=O)c4ccc(Cl)cc4)ccc32)cc1 1.35%
CCn1c(CNC(=O)c2ccc(OC)cc2)nnc1SCC(=O)Nc1cccc(C)c1 25.2%
Cc1ccc(S(=O)(=O)NCCc2nnc3ccc(SCC(=O)Nc4c(C)cc(C)cc4C)nn23)cc1 5.64%
Cc1ccc(NC(=O)Cn2nc(C(F)(F)F)c3c2CCCC3)cc1 7.2%
COc1ccccc1NC(=O)c1cc2cc3ccc(OC)c(Cl)c3nc2s1 -6.04%
COC(=O)c1c(NC(=O)c2cc(=O)c3cc(C)cc(C)c3o2)sc2c1CCC2 5.47%
COc1ccc2ncc3c(-c4ccc(C)c(C)c4)nn(CC(=O)Nc4ccccc4)c3c2c1 -6.09%
COc1ccc(NC(=O)Cn2c(=O)n(-c3ccc(OC)cc3)c(=O)c3sc4ccccc4c32)cc1 39.7%
COc1ccc2c(CNCc3ccco3)c(C(=O)O)n(Cc3cccc(F)c3)c2c1 0.498%
COc1cccc(C(=O)Nc2nc(-c3nnn(-c4cccc(Cl)c4C)c3C)ns2)c1 -16.9%
O=C(Cn1cc(S(=O)(=O)Cc2ccccc2F)c2ccccc21)Nc1ccc(F)c(Cl)c1 -25.8%
